In article PMC10073126, “Levosimendan inhibits disulfide tau oligomerization and ameliorates tau pathology in Tau^P301L-BiFC mice” (Experimental & Molecular Medicine, 2023):

Target: the molecule itself
Assay: non-reducing SDS-PAGE with tau immunoblot (disulfide-linked oligomers); cell or brain lysates in Laemmli buffer without BME, 10 ug on 10% SDS-PAGE, anti-tau immunoblot; cells basal or treated with tauK18^P301L or forskolin and MB, LMTM or levosimendan; mice given vehicle, LMTM or levosimendan

B1: tau of primary hippocampal neurons (rat) (natural protein)
chain: not shown
notes: endogenous tau of rat neurons; also called tau in primary neurons; source: endogenous, lysate of primary hippocampal neurons from Day 18 embryonic Sprague-Dawley rats
  fold level of disulfide-linked oligomers (tauK18^P301L against basal): 1.8 fold
  ratio of disulfide-linked oligomers to monomers (basal): 2.4 fold
